Results as given in article PMC9911399, “Two distinct binding modes provide the RNA-binding protein RbFox with extraordinary sequence specificity”.
Positions count from the first letter of the chain named. The list shows a part of the results.

T1: RBFOX1 RRM RbFoxmut (Fox-RRM*) (Homo sapiens, UniProt Q9NWB1 109-208, R118D;E147R;N151S;E152T)
T1 sequence: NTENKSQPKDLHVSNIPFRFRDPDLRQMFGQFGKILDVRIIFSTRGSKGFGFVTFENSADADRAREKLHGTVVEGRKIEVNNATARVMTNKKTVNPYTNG

B1: UGGUAGC (DNA:RNA)
RNA: GGGAGACCGGAAUUCAGAUUGUCCUGGUAGCUUAAAUCCCGUCGUAGCCACCA
DNA 1: CAATCTGAATTCCGGTCTCCC
DNA 2: TGGTGGCTACGACGGGATT
B2: AGCGGAA (DNA:RNA)
RNA: B1 RNA with U25A, G27C, U28G, A29G, G30A, C31A
DNA 1: CAATCTGAATTCCGGTCTCCC
DNA 2: TGGTGGCTACGACGGGATT
B3: GAGCCUG (DNA:RNA)
RNA: B1 RNA with U25G, G26A, U28C, A29C, G30U, C31G
DNA 1: CAATCTGAATTCCGGTCTCCC
DNA 2: TGGTGGCTACGACGGGATT
B4: CCGUCAG (DNA:RNA)
RNA: B1 RNA with U25C, G26C, A29C, G30A, C31G
DNA 1: CAATCTGAATTCCGGTCTCCC
DNA 2: TGGTGGCTACGACGGGATT
B5: AAAUGUA (DNA:RNA)
RNA: B1 RNA with U25A, G26A, G27A, A29G, G30U, C31A
DNA 1: CAATCTGAATTCCGGTCTCCC
DNA 2: TGGTGGCTACGACGGGATT
B6: CCCUCUG (DNA:RNA)
RNA: B1 RNA with U25C, G26C, G27C, A29C, G30U, C31G
DNA 1: CAATCTGAATTCCGGTCTCCC
DNA 2: TGGTGGCTACGACGGGATT
B7: CUCUCCG (DNA:RNA)
RNA: B1 RNA with U25C, G26U, G27C, A29C, G30C, C31G
DNA 1: CAATCTGAATTCCGGTCTCCC
DNA 2: TGGTGGCTACGACGGGATT
B8: AAACACA (DNA:RNA)
RNA: B1 RNA with U25A, G26A, G27A, U28C, G30C, C31A
DNA 1: CAATCTGAATTCCGGTCTCCC
DNA 2: TGGTGGCTACGACGGGATT
B9: CCUGGGA (DNA:RNA)
RNA: B1 RNA with U25C, G26C, G27U, U28G, A29G, C31A
DNA 1: CAATCTGAATTCCGGTCTCCC
DNA 2: TGGTGGCTACGACGGGATT

The binders below were run against T1, RBFOX1 RRM RbFoxmut (Fox-RRM*) (assay: EMSA; HiTS-Eq, 1 nM pool, 10 min; buffer printed only for the single-RNA assays: 10 mM Tris pH 7.5, 150 mM NaCl, 3.4 mM EDTA, 0.001% NP-40, 30 C). Settings: tags: His6 N-terminal (pET28a); label: 5' 32P.
Procedure, shortened: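 Purified wild-type or mutant RbFox RRM at increasing concentrations was equilibrated with 1 nM of 5′-radiolabelled RNA carrying 7 randomized nucleotides for 10 min in 50 µL. Unbound RNA was separated by 8% native PAGE and sequenced. Relative association constants came from read-count changes of each RNA species compared with the control reaction, normalised to the cognate motif.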

Row | Binder | binding signal
1 | B1 | 0.102 KA relative to UGCAUGU
2 | B2 | 0.124 KA relative to UGCAUGU
3 | B3 | 0.138 KA relative to UGCAUGU
4 | B4 | 0.0849 KA relative to UGCAUGU
5 | B5 | 0.166 KA relative to UGCAUGU
6 | B6 | 0.101 KA relative to UGCAUGU
7 | B7 | 0.0825 KA relative to UGCAUGU
8 | B8 | 0.106 KA relative to UGCAUGU
9 | B9 | 0.0578 KA relative to UGCAUGU
